Data reported in the RNAGym collection of RNA variant scans (doi:10.7554/elife.90254).
Read counts are not given, so values of variants with three or more changes are uncertain.

B1: LINE1-mini (parent)
chain: GGCAGAGCUCAACACAGCGUGGCAAAGUGGCUGUGGCUAGACUGCC

Variants of: B1
Assay: self-cleavage, relative activity (ratio to wild type); higher = more cleavage; in vitro, sequencing; the parent is a self-cleaving ribozyme

| Variant | self-cleavage |
| --- | --- |
| G5U U32G G40A | 0.02 |
| C3G A14U G19A | 0.23 |
| G1U C10A C31A U34A C46G | 0.01 |
| C8A U9G A12G C37U G44A | 0.12 |
| A4G G17C U28A G40C G44C | 0.03 |
| C23G A24C G29A | 1.92 |
| G17A G19C U34C G40U C42U G44A C45A | 0.02 |
| C8G C15U U32G G36A C42A | 0.08 |
| G7A C18G C31G | 0.02 |
| G1C G7C G44A C45A | 0.07 |
| G1C U20A G22A A41G | 0.03 |
| G2U C3A U28C | 0.21 |
| G7A G22C A24U U32G | 0.05 |
| G7A C23A G27A U38A C42A U43G | 0.01 |
| G19A C42U U43A | 0.08 |
| A6U A12G G35C | 0.04 |
| C15G G19C G33U C46G | 0.02 |
| C3U G5A U20A G21A C46A | 0.88 |
| C3U A4U C18A | 0.12 |
| G5U G30C A41U | 0.03 |
| G2U G7U U9C | 0 |

| Variant | self-cleavage |
| --- | --- |
| A14G C23A U34G | 0.09 |
| G17A A26C G35U G36A G40A A41G | 0.06 |
| G1U A6G C15U G27C C37U | 0.07 |
| C8G A14G C15U U20A | 0.07 |
| A16G U28A G33C G36A C42A | 0.01 |
| G5A G19U A25U C45U | 0.13 |
| G21A G30A G33C | 0.04 |
| U9G A41C C42U C45U | 0.12 |
| A4G A6U G7U C8G U20G G35U C42A | 0.18 |
| G1U C8U C15U | 0.08 |
| C3A A11C A26U C31A | 0.02 |
| U32A U38A A41G C46A | 0.04 |
| G1U G29A G33U U38A | 0.03 |
| A6C A16G G22U G29U G36U | 0.05 |
| G7C C13G U34A U38C | 0.1 |
| A11C C13U G33U A41C C46G | 0.01 |
| C15A C37G U43C | 0.02 |
| C3A C18G U20C G40U | 0.07 |
| G2U G7C A14C G35U | 0.03 |
| C15U U20C U43A G44U | 0 |
| A24U G30C G40C A41U C45G | 0.03 |

| Variant | self-cleavage |
| --- | --- |
| C18A G22U A26U U28G G36C | 0.03 |
| G19U A24U C45G | 0.5 |
| C13U A26G G40U | 0.13 |
| G2C A4C A16U A24U U32G G36A | 0.04 |
| U28A G30A A41G | 0.06 |
| A6G C31A U34G G44A | 0.05 |
| C15G C18A G33A | 0.02 |
| C10U G30U C37U | 0.04 |
| G7U G22A U28C G29C C31U G36A | 0.03 |
| A4G A6C G35U | 0.08 |
| G2A C3A C10U A26C C31G U32A | 0.18 |
| C18A G30A U38C G44U | 0.01 |
| C13G G17A G27U G40C | 0.03 |
| A14U G21U G30A C31G G33A | 0.04 |
| G30C C31A G33U G40A | 0.02 |
| A6C C10G G22C C31U | 0 |
| A6G G21C A24C | 0.01 |
| G2U C10G C15A A16C A39U | 0.02 |
| A4G A24C C42G | 0.04 |
| C23A G36C U38C | 0.03 |
| G2C C3A C15G A16U | 0.03 |

| Variant | self-cleavage |
| --- | --- |
| C23U A25C U43C | 0.11 |
| C23A A24U G35A | 0.17 |
| G1C G7A A25C C46U | 0.03 |
| A26C G35U G40A | 0.05 |
| C15U A24C G29C | 0.71 |
| A6C G7U G22A C45G C46A | 1.1 |
| C18A U32G U34A | 0.04 |
| A14G U34G G35U G40U C45A C46U | 0 |
| C8A U9A G21U G33C C46A | 0.05 |
| G17A C23A G27A A41C | 0.02 |
| G19C A25G U28A C45U | 0.33 |
| A12C G29C A41C | 0.01 |
| G7U G35A C37A | 0.04 |
| C18G C23A G36C G40C | 0.01 |
| C8G A11U G22U A25C | 0.01 |
| G1A C10G G19U U32G C45G | 0.01 |
| G19U A24U G29C U43A | 0.05 |
| G1A G2C C10A G21A A25G C42A | 0.02 |
| A4C G21C C45A | 0.21 |
| A16G G19A A25U | 0.26 |
